Source: ChEMBL document CHEMBL4888484, “Replenishing the malaria drug discovery pipeline: Screening and hit evaluation of the MMV Hit Generation Library 1 (HGL1) against asexual blood stage Plasmodium falciparum ,using a nano luciferase reporter read-out” (2022)
The whole screen tested about 150,000 compounds, of which about 540 (0.36%) showed an effect of 50% or more. Some of the results follow.

test system: Plasmodium falciparum; test: Primary screen in NF54 nanoGlo assay, in single point, at 2uM, 72h; a lower Z score goes with more inhibition; type: functional, Erythrocyte; conditions: timepoint 72 hour

Row | SMILES | % Inhibition [%] | Z score
1 | c1ccc2c(c1)N(CCn1cncn1)CCN2CC1CC1 | -4 | 0.64
2 | CC(CCCO)NC(CNC(=O)OC(C)(C)C)Cc1ccccc1 (stereo not drawn) | 5 | -1.01
3 | N#CC1(CS(=O)(=O)N(CC2CC2)c2cccnc2)CC1 | -11 | 1.06
4 | OCCCNc1ccc(Cl)cc1OC(F)F | -4 | 0.53
5 | OC[C@H]1CCCN1CCCc1ccccc1 | -12 | 2.22
6 | CCOc1cccc(CCNC(=O)N2CCCC3CN(C)CCC32)c1 (stereo not drawn) | 0 | 0.03
7 | CC(C)(C)c1ccc(CCCCN)cc1 | -13 | 1.77
8 | Cc1cccc(-c2noc(N3CCOCC3)c2CN(Cc2ccc(F)cc2)C(=O)C2CCCC2)c1 | 11 | -1.39
9 | CCO[C@H]1CCN(c2nnnn2CC2(C)CCOC3(CCC3)C2)C1 (stereo partly drawn) | 19 | -2.48
10 | COCCN1C[C@@H](Cc2cccc(C(F)(F)F)c2)CC1=O | -21 | 1.91
11 | CCOC(=O)C1CCCN(C(=O)CN2Cc3ccccc3OC(c3ccccc3OC)C2)C1 (stereo not drawn) | -7 | 0.96
12 | COc1nn(C)cc1CNC(=O)Nc1ncc(C2CCCCC2)s1 | -7 | 1.15
13 | Cc1nc(C)c(Cn2ccnc2-c2ccncc2)s1 | -4 | 0.53
14 | O=C1CCN(S(=O)(=O)c2ccccc2)CCC[C@H](C(=O)N2CCN(Cc3ccccc3F)CC2)CCN1 | -13 | 1.69
15 | COc1ccc(COc2ccccc2C(=O)NCc2ccccc2)cc1F | -16 | 2.18
16 | O=C(CN1CCCc2ccc(F)cc21)N1CCNC1=O | -3 | 0.59
17 | Nc1nnc(CCNC(=O)N2CCN(c3ccc4nccn4n3)CC2)s1 | -16 | 1.89
18 | Cc1cccnc1[C@H](C)NC(=O)Cn1ccc(=O)cc1 | -16 | 2.1
19 | CN(CCO)C[C@@]12CN(C(=O)OC(C)(C)C)C[C@]1(C(F)(F)F)C2 | -2 | 0.35
20 | NC(=NCc1cc(F)cc(F)c1)N1CCN(c2ccccc2F)CC1 | 2 | -0.33
21 | FC(F)Oc1ccc(NCc2ccon2)nc1 | -2 | 0.22
22 | Cc1cccc(Cl)c1S(=O)(=O)N1CC(c2cccnc2)C1 | -8 | 1.25
23 | CCNc1ncc(C(=O)N2CC(OCc3ccccc3F)C2)cn1 | 0 | 0

Row | SMILES | % Inhibition [%] | Z score
24 | Cn1c(Cn2ncccc2=O)nnc1-c1ccc(Cl)cc1 | 6 | -0.71
25 | COc1cc2c(cc1CN1CCCn3nc([C@H](C)O)cc3C1)OCCCO2 | -15 | 1.47
26 | CC1=NN(c2nc(-c3ccc(F)cc3)cs2)C(=O)[C@H]1C | -12 | 2.33
27 | NC(=O)NCC(=O)N1CCC[C@H](C(=O)Cc2ccccc2)C1 | -6 | 0.68
28 | CCN1CCC(Nc2ccc3[nH]ncc3c2)C(C)C1 (stereo not drawn) | -10 | 1.18
29 | Cc1ncsc1CN(C)Cc1ncc(-c2cccs2)o1 | -1 | 0.17
30 | CC1CN(Cc2nc(-c3cccnc3)no2)CC(C)O1 (stereo not drawn) | -7 | 1.25
31 | OCC1OC(n2nnc3ccccc32)C(O)C(O)C1O (stereo not drawn) | -7 | 1.28
32 | CNS(=O)(=O)CC1CCCN(C(=O)NC(C)Cc2ccc(F)cc2C)C1 (stereo not drawn) | 3 | -0.34
33 | Cc1nn[nH]c1NC(=O)CC1CC2CCC1C2 (stereo not drawn) | -12 | 1.17
34 | Cc1n[nH]c(CN(C2CC2)C2COC2)n1 | -6 | 0.69
35 | CN(C)c1cccc(C(=O)N2CCC3(CC2)CC3(F)F)c1 | 11 | -1.38
36 | Cc1cc(NC(=O)c2cnc3ccccc3n2)ccc1N1CCCC1=O | -9 | 1.36
37 | OC(COc1ccc(F)cc1)CN1CCCCC1Cn1cncn1 (stereo not drawn) | -2 | 0.37
38 | CN1CCN(C(=O)[C@@H]2Cc3cc(Cl)ccc3O2)CC1 | 3 | -0.42
39 | Cc1ccc(C2=NN(c3nc(C(=O)O)cs3)[C@@](O)(C(F)(F)F)C2)cc1 | -6 | 0.94
40 | COC[C@@H]1CCC[C@@H]1Nc1ncc(-c2cncnc2)c(-c2ccc(C)cc2)n1 | -7 | 0.69
41 | CC1CN(S(C)(=O)=O)CCC1NC(=O)NCC(F)(F)c1cccc(F)c1 (stereo not drawn) | -14 | 1.76
42 | CC(C)(CNS(C)(=O)=O)c1ccc(C(F)(F)F)cc1 | 0 | 0.02
43 | CC(C)c1nn(C)cc1CN(C)Cc1c[nH]nc1-c1cccnc1 | -19 | 2.15
44 | COc1ccc(Br)c(CS(=O)(=O)Nc2nnc[nH]2)c1 | -11 | 2
45 | CCn1c(C)ccc(C(=O)NCc2ccc3c(c2)CCO3)c1=O | 0 | 0.03
46 | CCCCN=C(NCc1c(C)noc1C)N[C@@H](C)CC | 1 | -0.14

Row | SMILES | % Inhibition [%] | Z score
47 | C[C@@H]1Oc2ccc(NC(=O)c3ccccc3)cc2CN(Cc2ccc(Cl)cc2)C1=O | 6 | -0.74
48 | Cc1nn(-c2ccccc2)c(C)c1[C@H]1C(=O)NCCN1C(=O)c1cccc(C(F)(F)F)c1 | 5 | -0.54
49 | Fc1cncnc1N1CC(Cn2cccn2)C1 | -12 | 1.32
50 | O=C(COC(=O)Cc1ccc(Cl)cc1)NC1CCCCCC1 | 3 | -0.34
51 | Cc1noc(C)c1C(=O)N1CCCCc2cc(Cl)ccc21 | 18 | -2.05
52 | NC(=O)C1CC1c1cccc2ccccc12 (stereo not drawn) | 31 | -3.53
53 | CC(C)N1C[C@@H](Nc2nnc(-c3ccon3)s2)CC1=O | -2 | 0.32
54 | Cc1ccc(Cn2cc([C@H](CC(=O)NCc3ccccc3)c3ccc(C(C)(C)C)cc3)c3ccccc32)cc1 | -13 | 1.98
55 | c1nscc1-c1csc(CN2CCOCC2)n1 | -4 | 0.65
56 | COc1ccccc1-c1cc(CC(C)C)nc(N(C(C)=O)C(C)=O)c1C#N | -17 | 2.47
57 | O=C(c1cccnc1)n1nc(NCc2ccc(Cl)cc2Cl)nc1NCc1ccc(Cl)cc1Cl | 4 | -0.55
58 | CCC1(C(=O)N[C@H]2CC[C@H](NC(=O)c3cc(C4CC4)[nH]n3)CC2)CCCC1 | -1 | 0.13
59 | CCOc1ccc(NC(=O)c2cn3c(n2)CCCC3)cc1 | -4 | 0.68
60 | COC[C@H]1CCCCN1Cc1ccc(C)c2ncccc12 | -10 | 1.88
61 | O=C(NCC#CCN1CCOCC1)c1cc(-c2ccc3c(c2)OCO3)n[nH]1 | -19 | 2.17
62 | COc1cc(C)cc(OC)c1-c1ccc(N(C)C)nn1 | 0 | -0.04
63 | CCC(C)c1cc(C(=O)N(C)C2CCN(CC(F)(F)F)C2=O)on1 (stereo not drawn) | -4 | 0.58
64 | CCS(=O)(=O)N1CCC[C@H](C(=O)NC2(C)CCCCC2)C1 | -18 | 1.6
65 | Cc1cc(C)nc(CCNc2cc(C(C)C)nc(N)n2)n1 | -2 | 0.43
66 | CC(=O)NCCC1=CCCN(Cc2cc(F)ccc2Cl)C1 | 10 | -1.29
67 | CCOc1ccc(NC(=O)Cn2c3c(cc(C#N)c2=O)CCC3)cc1 | -17 | 1.72
68 | COc1ccccc1CN(Cc1[nH]cc(C)c(=O)c1C)C1CC1 | 1 | -0.14
69 | c1cc2cc(-c3cnn(CC4CC4)c3)ccc2[nH]1 | 1 | -0.1

Row | SMILES | % Inhibition [%] | Z score
70 | CC[C@@H](C(=O)Nc1nocc1C)c1c(C)noc1C | 2 | -0.32
71 | N#Cc1sc2nnc(-c3ccccc3)c(-c3ccccc3)c2c1N | -47 | 5.48
72 | CCCc1nc(C(N)=O)n(Cc2cnc(C)s2)n1 | 15 | -1.95
73 | CN(C)c1ccc(CN2CCN(Cc3ccc4c(c3)OCO4)C(=O)C2)cn1 | 3 | -0.28
74 | Cc1ccc2c(c1)C(NC(c1cccnc1)c1ncc[nH]1)CCC2 (stereo not drawn) | 41 | -5.86
75 | CC[C@@H](c1ccc(F)cc1)S(=O)(=O)Cc1ccnn1C | 0 | 0
76 | O=C(Nc1nc2c(s1)CN(S(=O)(=O)c1cccc(Cl)c1)CC2)NC1CCCC1 | -12 | 2.31
77 | Cc1nc(CCNc2nc(-c3ccccn3)nc3c2CCNCC3)no1 | -2 | 0.27
78 | FC(F)(F)c1cccc(OCC#CCN2CCOCC2)c1 | -3 | 0.48
79 | c1cc(N2CCOCC3(CC3)C2)c2sccc2n1 | -1 | 0.11
80 | COc1ccc(-c2cc(C(=O)Nc3nc(-c4cccn4C)cs3)no2)c(F)c1 | -1 | 0.14
81 | CC(C)(C)OC(=O)N1CCc2[nH][nH]c(=O)c2C1 | 1 | -0.1
82 | Cc1cc(C(NC(=O)NC2CCOC3(CCCC3)C2)C2CC2)ccc1F (stereo not drawn) | 2 | -0.33
83 | Cn1cc(NC(=O)[C@H]2CCC(F)(F)C2)cn1 | 0 | 0.02
84 | O=C(O)CC[C@H]1CCCN(Cc2ccc3cc[nH]c3n2)C1 | -3 | 0.59
85 | CC(=O)c1cccc(NC(=O)Cn2ccn3ccnc3c2=O)c1 | 6 | -1.21
86 | CC(C)c1ccc(NCC(=O)Nc2ncc(Cc3ccc(Cl)cc3)s2)cc1 | 9 | -1.23
87 | CC(C)(NCC#N)c1c(Cl)cccc1Cl | -20 | 3.07
88 | Cc1ccc(C(=O)N(C)Cc2ccsc2)n1C | -15 | 2.03
89 | O=c1ccn(-c2ccc(Cl)c(-c3ccc(Cl)cc3)c2)[nH]1 | -10 | 1.56
